# From PubChem BioAssay AID1508642 (National Center for Advancing Translational Sciences (NCATS), 2021)
# In all, about 43,000 compounds went through this assay and about 200 (0.47%) were called active. Inconclusive results (about 12%) are left out. Calls follow the shape of the dose curve; as a rule, active = well fitted cell-killing curve with a large enough effect; inconclusive = small, poorly fitted or top-dose-only effect, or effect the other way; inactive = flat fitted curve, though single readings scatter. The list shows a part of the results.
# Assay: Cell viability qHTS assay in S16 Pmp22-F2sN cells; also: nearly all actives have a fitted effect of over 65% in size
# Details: S16 Pmp22-F2sN Schwann cells viability, CellTiter-Glo, 24 h; series mostly up to 57.5 µM; activity change, negative = cytotoxicity: at the top concentration
# Outline: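 Used to flag compounds lowering reporter output through toxicity, this quantitative HTS measures ATP-based CellTiter-Glo luminescence in S16 Pmp22-F2sN Schwann cells after 24 h compound exposure at 37C.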
# % is scaled to controls: 0 for no effect and ±100 for the full control effect.
row,Compound,"activity change, negative = cytotoxicity"
1,Cc1cccc(CNC(=O)c2ccc3c(c2)N(C)CCS3)c1,inactive: -15.8%
2,COc1ccc(CNCc2c(C(=O)O)c(C)n(Cc3ccccc3C)c2C)cc1OC,inactive: 1.17%
3,Cc1ccc(C)c(N2CCN(S(=O)(=O)c3ccc4[nH]c5c(c4c3)CCCC5)CC2)c1,inactive: -28.4%
4,COc1ccc(N2CCN(c3ncccc3-c3nc(-c4ccccc4C)no3)CC2)cc1,inactive: 16.6%
5,Cc1ccccc1CNC(=O)Cn1nc(C)c2nn(-c3ccc(Cl)cc3)c(C)c2c1=O,inactive: 7.38%
6,CCOC(=O)c1sc2ccccc2c1S(=O)(=O)Nc1cc(OC)ccc1OC,inactive: 1.9%
7,CCC(C(=O)NC1CCCCC1)n1c(SCc2ccccc2F)nc2ccncc21 (stereo not drawn),inactive: -17.1%
8,COCCNC(=O)CN1C(=O)COc2ccc(S(=O)(=O)N3CCCCCC3)cc21,inactive: 12%
9,CCOC(=O)CSc1nc2sc3c(c2c(=O)n1Cc1ccccc1)CC(C(C)C)OC3 (stereo not drawn),inactive: 16%
10,CCC(C)NC(=O)CCCn1c(=O)c2cccn2c2ccccc21 (stereo not drawn),inactive: 1.06%
11,CCN(Cc1ccccc1)c1nc2c(S(=O)(=O)c3ccccc3)nnn2c2ccc(Cl)cc12,inactive: 8.46%
12,CCc1ccc(NC(=O)CSc2ccc(-c3sc(-c4ccccc4)nc3C)nn2)cc1,inactive: 15.6%
13,Cc1ccccc1C(=O)Nc1cccc(NC(=O)c2ccc(C(C)(C)C)cc2)c1,inactive: -21.6%
14,Cc1ccccc1CNC(=O)CN1C(=O)CCCc2ccccc21,inactive: -1.1%
15,Cc1ccc(C2CC(=O)N(Cc3ccc(F)cc3)c3c2c(C)nn3-c2nc(C)cc(C)n2)cc1 (stereo not drawn),inactive: -12.7%
16,COc1ccc(CCNC(=O)CCCn2c(=O)c3ccccc3n(CC(=O)Nc3ccccc3C)c2=O)cc1OC,inactive: 15.9%
17,COc1ccc(Cn2c(SCC(=O)N3CCN(c4ccc(F)cc4)CC3)nc3ccccc32)cc1,inactive: 9.36%
18,O=C(CN1CCN(Cc2ccc(F)cc2)C1=O)NCc1ccc(F)cc1,inactive: -5.27%
19,COCCNC(=O)Cn1c(-c2cccs2)cc2cc(Cl)ccc21,inactive: -16.5%
20,CCc1ccccc1NC(=O)CN(c1ccccc1OC)S(=O)(=O)c1ccc(C)cc1,inactive: 10.7%
21,Cc1ccsc1CN(C(=O)COc1ccccc1Cl)C1CCS(=O)(=O)C1 (stereo not drawn),inactive: 1.15%
22,Cc1sc(C2C(C#N)=C(N)N(c3ccc(Cl)cc3)C3=C2C(=O)CCC3)cc1CN1CCOCC1 (stereo not drawn),inactive: -14.6%
23,O=C(COc1ccccc1)N(Cc1cccnc1)c1nc2c(F)cc(F)cc2s1,inactive: 1.1%
24,CC1CCN(S(=O)(=O)c2ccc3c(c2)N(CC(=O)NCCCOC(C)C)C(=O)CO3)CC1,inactive: 2.18%
25,COc1cc(C(=O)NCCc2sc(-c3ccc(C)cc3)nc2C)cc(OC)c1OC,inactive: 2.61%

row,Compound,"activity change, negative = cytotoxicity"
1,CC1CCN(C(=O)Cn2cc(SCC(=O)NCc3ccc(F)cc3)c3ccccc32)CC1,inactive: -26.2%
2,Cc1nnc(N2C(=O)c3oc4ccccc4c(=O)c3C2c2cccc(OCCC(C)C)c2)s1 (stereo not drawn),inactive: 1.75%
3,O=[N+]([O-])c1cc(-c2nc(-c3ccccc3)no2)ccc1NCc1ccco1,inactive: 17.6%
4,Cc1ccc(C(=O)c2oc3ccccc3c2NC(=O)COc2ccccc2C)cc1,inactive: -0.795%
5,Cc1ccc(-c2noc(-c3ccc(N4CCOCC4)c([N+](=O)[O-])c3)n2)cc1,inactive: 12.4%
6,Cn1c(=O)c2cc(C(=O)NCCCN3CCN(c4ccc(F)cc4)CC3)sc2c2ccccc21,inactive: 1.9%
7,COCCCNC(=O)c1c(NC(=O)Cc2coc3cc(C)ccc23)sc2c1CCCC2,inactive: -0.994%
8,COc1ccc(C(=O)/C=C/c2cn(CC(O)CN3CCCCCC3)c3ccccc23)cc1OC (stereo not drawn),inactive: -19.8%
9,COc1ccc(NS(=O)(=O)c2cnc(N)nc2)cc1Cl,inactive: -0.892%
10,COc1ccc(-c2nc3ccccc3o2)cc1NC(=O)COc1cc(C)cc(C)c1,inactive: 5.58%
11,Cc1oc2c(c1C(=O)Nc1ccc(OC(F)(F)F)cc1)C1=NCCN1C=N2,inactive: -0.555%
12,O=C(COc1ccc2oc3c(c2c1)CCCC3)Nc1cccc(Br)c1,inactive: -0.566%
13,Cc1cc(=O)[nH]c2nnc(SCC(N)=O)n12,inactive: -1.92%
14,CC(=O)c1ccc(Oc2ncnc3c2oc2ccccc23)cc1,inactive: -0.238%
15,COc1ccc(NC(=O)CCS(=O)(=O)c2cc3c4c(c2)CCN4C(=O)CC3)c(OC)c1,inactive: 3.4%
16,Cn1cc(S(=O)(=O)N2CCCCCC2)cc1C(=O)Nc1ccc(Cl)c(C(F)(F)F)c1,inactive: 2.92%
17,COc1ccc(NS(=O)(=O)c2cc3c(cc2C)N(C(C)=O)CCO3)cc1,inactive: -2.31%
18,CC1=Nc2cc(C(=O)N3CCC(C)CC3)ccc2Sc2ccc(Cl)cc21,inactive: 0.599%
19,Cc1cc2c(cc1NS(=O)(=O)c1cccc(C#N)c1)n(C)c(=O)c(=O)n2C,inactive: -4.32%
20,CCc1cccc(C)c1NC(=O)Cn1nnc(-c2nc(-c3ccccc3F)no2)c1N,inactive: 7.11%
21,CCc1ccc(NC(=O)C2CCCN2S(=O)(=O)c2ccc3c(c2)CCCC(=O)N3)cc1 (stereo not drawn),inactive: -23.9%
22,COc1ccccc1NC(=O)c1cnc(SCC(=O)N2CCOCC2)n(C)c1=O,inactive: 18.5%
23,COc1ccc2c(c1)c1c(c(=O)n(Cc3ccccc3)c(=O)n1Cc1cccc(Cl)c1)n2C,inactive: -3.69%
24,Cc1cc(C)c2oc(-c3ccc(Cl)c(NC(=O)c4cccs4)c3)nc2c1,inactive: 9.69%
25,CCn1cc(C(=O)NCCCOC)c(=O)c2cc(S(=O)(=O)N3CCc4ccccc4C3)ccc21,inactive: -8.5%

row,Compound,"activity change, negative = cytotoxicity"
1,COc1ccc(-c2n[nH]c3c2cnc2ccc(F)cc23)cc1,inactive: 4.97%
2,CCCSc1nc(-c2ccccc2)[nH]c1S(=O)(=O)c1ccc(C)cc1,inactive: -17.8%
3,COc1ccc(-c2cc3ccc(O)c(CN4CCCC4)c3oc2=O)cc1,inactive: 4.96%
4,Cc1ccc(-c2c(C(=O)NCCc3ccccc3)oc(=O)c3ccccc23)cc1,inactive: -3.72%
5,Cc1cc(C)cc(NC(=O)C2CCN(S(=O)(=O)c3cn(C)cn3)CC2)c1,inactive: -0.313%
6,O=c1oc2ccc3ccccc3c2cc1-c1nnc(Nc2ccccc2F)s1,inactive: 3.01%
7,O=C(NCc1ccccc1)c1cccn1-c1nnc(N2CCCC2)s1,inactive: 4.31%
8,CC(=O)N1c2ccccc2C(C)(c2ccc(C)cc2)CC1(C)C (stereo not drawn),inactive: 3.06%
9,CN1C(=O)c2ccccc2Sc2ccc(NC(=O)N3CCN(c4ccccc4)CC3)cc21,inactive: -22.4%
10,COc1ccc(-n2nnnc2C2CCN(S(=O)(=O)c3ccc(C)cc3)CC2)cc1,inactive: -2.36%
11,COc1cc2c(cc1OC)C(COc1ccc3c(C)cc(=O)oc3c1)N(C(=O)c1ccccc1C)CC2 (stereo not drawn),inactive: 0.993%
12,COCCn1c(=O)[nH]c2cc(C(=O)N3CCN(c4ccccc4)CC3)ccc2c1=O,inactive: 2.56%
13,NC(=O)CSc1ncc2c(n1)-c1ccccc1N(Cc1ccc(F)cc1)S2(=O)=O,inactive: 10.7%
14,CCOc1ccc(C(=O)Nc2ccc3nc(SCC(=O)N4CCc5ccccc54)sc3c2)cc1,inactive: 11.7%
15,CC1=C(c2ccc(C)cc2)S(=O)(=O)N(Cc2ccc(C(=O)Nc3ccc(C)c(F)c3)cc2)C1=O,inactive: -2.28%
16,Cc1ccc(-c2ccc(CCC(=O)O)n2-c2ccc(C(N)=O)cc2)cc1,inactive: 0.286%
17,CC(=O)N1CCc2cc(S(=O)(=O)NC(Cc3ccccc3)C(=O)Nc3cc(C)ccc3C)ccc21 (stereo not drawn),inactive: -0.788%
18,CCOc1ccc(CNC(=O)c2nn(-c3ccc(OC)cc3)c(=O)c3c2c2ccccc2n3C)cc1,inactive: 3.98%
19,O=C(NCC(c1cccs1)S(=O)(=O)c1cccs1)c1cccc(F)c1 (stereo not drawn),inactive: 18.4%
20,COc1ccc(-c2nc3ccccc3n3c(-c4ccccc4)c4c(=O)n(C)c(=O)n(C)c4c23)cc1OC,inactive: 2.2%
21,O=c1oc2c3c(ccc2c2ccccc12)OCN(Cc1ccc(Cl)cc1)C3,inactive: 1.56%
22,c1cnc(N2CCN(c3ncc4c(n3)CCNC4)CC2)nc1,inactive: 9.26%
23,COc1ccc(OC)c(-n2nnc(-c3nc(-c4cc(OC)c(OC)c(OC)c4)no3)c2C)c1,inactive: 2.05%
24,Cc1ccc(Cc2cn3cc(-c4ccc(F)cc4)nc3s2)cc1,inactive: 11%
25,COc1ccc(-c2c(C)c3ccc(O)c(CN4CCCC4)c3oc2=O)cc1OC,inactive: -0.898%

row,Compound,"activity change, negative = cytotoxicity"
1,Cc1cc(C)n(-c2nc(C)c(C)c(=O)n2CC(=O)Nc2ccc(OC(F)(F)F)cc2)n1,inactive: -11.6%
2,Cc1cccc(NC(=O)c2cc(S(=O)(=O)N3CCCCCC3)cn2C)c1C,inactive: 7.17%
3,Cc1ccc(NC(=O)Cn2cc(C(=O)C3CC3)c3ccccc32)cc1C,inactive: 1.55%
4,Cc1ccccc1CSc1ccc(-c2cccs2)nn1,inactive: -4.06%
5,COc1ccc(OCc2nc(-c3ccc(-n4cccc4)cc3)no2)cc1,inactive: 0.245%
6,CCC(=O)N1CCc2cc(CNS(=O)(=O)c3cccs3)ccc21,inactive: -9.04%
7,CCCCOc1ccc(CNC(=O)c2ccc3c(c2)N(C)C(=O)C2CCCCN32)cc1 (stereo not drawn),inactive: -2.26%
8,COc1ccc(CNC(=O)CCc2nc(-c3ccc(OC)cc3)no2)cc1,inactive: -2.42%
9,Cc1cc(C)c2c(n1)sc1c(=O)n(-c3ccccc3C(F)(F)F)nnc12,inactive: -0.667%
10,CCSc1nc2c([nH]c3ccccc32)c(=O)n1-c1ccc(F)cc1,inactive: -1.36%
11,Cc1ccc(OCCSc2nc3ccc(NC(=O)c4ccc(F)cc4)cc3s2)cc1,inactive: 0.454%
12,CCOC(=O)C(CC)Sc1c(CC)cnc2c1c(=O)n(C)c(=O)n2C (stereo not drawn),inactive: 8.83%
13,CC(=O)N1CCc2c(sc3c2c(=O)n(Cc2ccccc2)c(=O)n3Cc2cc(C)ccc2C)C1,inactive: 1.08%
14,COc1ccc2c(c1)Cc1sc(NC(=O)c3cccc(Br)c3)nc1-2,inactive: 11.4%
15,CC1CN(C(=O)N2CCC(C(=O)NCCCc3ccccc3)CC2)c2ccccc2O1 (stereo not drawn),inactive: 4.91%
16,Cc1c(Cl)cccc1Nc1nc2ccc(C(=O)c3ccccc3)cc2n2cnnc12,inactive: 0.649%
17,Cc1ccc(CNC(=O)CN2C(=O)C3(SCC(=O)N3c3ccc(F)cc3)c3ccccc32)cc1 (stereo not drawn),inactive: 0.938%
18,Cc1ccc(NC(=O)Cn2c(-c3cncs3)nc3ccccc32)c(Br)c1,inactive: 0.848%
19,CCCCCn1c(CCNC(=O)c2cccc(C)c2)nc2ccccc21,inactive: -6.7%
20,Cc1ccc(/C=C/c2onc(C)c2S(=O)(=O)N2CCC(C(=O)Nc3ccc(Br)c(C)c3)CC2)cc1,inactive: 18.4%
21,CCC(CC)C(=O)Nc1cc(-c2ccccc2F)nn1-c1ccccc1,inactive: 10.7%
22,CNS(=O)(=O)c1cn(CC(=O)Nc2ccc(OC)cc2OC)cc1S(=O)(=O)NC,inactive: 13.2%
23,NS(=O)(=O)c1ccc(NC(=O)CSc2ccc3ccccc3n2)cc1,inactive: 3.18%
